# Measured values: PubChem BioAssay AID624296 (National Center for Advancing Translational Sciences (NCATS), 2012)
# Among all 350,000 compounds or so, about 9,900 (2.8%) were called active. Inconclusive means that the source gave no clear call. Such entries were picked first, then a sample of the others. Calls follow the shape of the dose curve; as a rule, active = well fitted activation curve with a large enough effect; inconclusive = small, poorly fitted or top-dose-only effect; inactive = no such curve, though single readings can be large or run the other way. Potencies of inconclusive entries are left out as doubtful fits.
# Test: A quantitative high throughput screen for small molecules that induce DNA re-replication in MCF 10a normal breast cells. Also: nearly all actives have a fitted effect of over 50% in size.
# Conditions: MCF 10A DNA re-replication, Hoechst nuclear intensity, 48 h; series mostly up to 46.1 µM
# Potency is read from the fitted curve at half-maximal effect; tags tell the direction and shape of the fitted curve.
row,Structure (SMILES),Potency
1,CC(=O)c1cc2ccc(O)cc2oc1=O,active: 20.6 µM
2,CCN(CC)CCCNC(=O)c1cc(Sc2nnc(C)s2)nc2ccccc12,"inconclusive [activator, single point]"
3,CCOc1ccc(OCC(=O)Nc2cccc(S(=O)(=O)NC3=NCCC3)c2)cc1,"inconclusive [activator, single point]"
4,CCSc1cnn(-c2ccccc2)c(=O)c1Cl,"inconclusive [activator, single point]"
5,CCOC(=O)c1c(CN2CCNCC2)nc2ccc(Cl)cc2c1-c1ccccc1,"inconclusive [activator, partial curve, poor fit]"
6,CC1=C(C(=O)OC2CCCCC2)C(c2ccc(C)o2)C2=C(CC(C)(C)CC2=O)N1 (centres undefined),"inconclusive [activator, full curve]"
7,O=C(Cc1ccc(S(=O)(=O)N2CCCCC2)s1)Nc1ccc(F)c(F)c1,"inconclusive [activator, partial curve, poor fit]"
8,CCCOc1ccc(N/C=C/C(=O)c2ccc(OC)c(OC)c2)cc1,"inconclusive [activator, single point]"
9,COc1cccc(C2c3cc4c(cc3OC(C)(N3CCCC3)C2C)OCO4)c1O (centres undefined),"inconclusive [activator, single point]"
10,CCC(C)(c1ccc(C(=O)OC)s1)c1ccc(C(=O)OC)s1,"inconclusive [activator, partial curve, poor fit]"
11,CC(=O)Nc1ccc(NC(=O)CSc2ncc(C(=O)Nc3ccc(F)cc3)c(=O)n2C)cc1,"inconclusive [activator, single point]"
12,COc1ccc(Br)cc1CNC(=O)C1CCCN(c2nc3ccccc3o2)C1 (centres undefined),"inconclusive [activator, single point]"
13,Cc1c(C(=O)NCc2ccccc2)c(-c2ccccc2)nn1-c1ccccc1,"inconclusive [activator, partial curve, poor fit]"
14,COc1cccc(C2(O)CCN(C(=O)c3cccs3)CC2)c1,inactive
15,COc1cc(C(=O)Nc2ccccn2)cc(OC)c1OC,inactive
16,CCN(CC)c1ccc(S(=O)(=O)N2CCOCC2)cc1NC(=O)CSc1nnc(N)s1,inactive
17,CCOC(=O)c1c(NC(=O)CN2C(=O)CN(C)C2=O)sc(C)c1C,inactive
18,Cc1occc1C(=O)N/N=C/C=C/c1ccc(N(C)C)cc1,"inconclusive [activator, single point]"
19,COc1ccccc1C(CNC(=O)c1cccc(S(=O)(=O)N2CCCc3ccccc32)c1)N(C)C (centres undefined),inactive
20,C[C@@H]1CC=C[C@H]2[C@H]1C(=O)N(Cc1ccccc1)[C@H]2c1ccc2ccccc2c1,"inconclusive [activator, single point]"
21,CCN(CC)C1CCN(C(=O)c2cc(COc3ccc(-n4cncn4)cc3)on2)C1 (centres undefined),"inconclusive [activator, partial curve, poor fit]"
22,O=C(N[C@H](Cc1cc(=O)[nH]c2ccccc12)C(=O)O)c1ccc(Cl)cc1,inactive

row,Structure (SMILES),Potency
1,O=C(c1cc2cc(F)ccc2[nH]1)N1CCC(Cc2ccccc2)CC1,active: 8.2 µM
2,Cc1cc(C)c2nc(SCC(=O)NNC(=O)c3ccco3)c(C)cc2c1,"inconclusive [activator, partial curve, poor fit]"
3,Cc1c(O)ccc2cc(S(=O)(=O)c3ccccc3)c(=O)oc12,active: 4.11 µM
4,Cc1ccc(NC(=O)CCC(=O)N/N=C/c2cccnc2)cc1,"inconclusive [activator, partial curve, poor fit]"
5,CC(=O)c1nnn(-c2ccc(Cl)cc2C#N)c1C,"inconclusive [activator, partial curve, poor fit]"
6,COc1cc(/C=C2/SC(=O)N(CC(=O)N3CCCC3)C2=O)ccc1Oc1ccc([N+](=O)[O-])cn1,"inconclusive [activator, partial curve, poor fit]"
7,CCOc1cccc(/C=C/c2ccc3ccccc3n2)c1OC(C)=O,active: 23.1 µM
8,CCOC(=O)c1ccc(NC(=S)NCCC2=CCCCC2)cc1,inactive
9,COc1ccc(Cc2nnc(SCC(=O)c3ccc(OC)cc3)o2)cc1,active: 6.51 µM
10,COCCN(CCOc1cc(C)cc(C)c1)Cc1ccc(Cl)cc1,active: 18.4 µM
11,CC(Sc1ccccn1)C(=O)NC1CCCC1 (centres undefined),"inconclusive [activator, partial curve, poor fit]"
12,Cc1oc(C)c2c(=O)ccc3c(c12)OC(N)=C(C#N)C3c1ccccc1Cl (centres undefined),"inconclusive [activator, single point]"
13,CCC(Oc1ccccc1)C(=O)NCCCN1CCOCC1 (centres undefined),inactive
14,Cc1cc(N2C(=O)C=CC2=O)c([N+](=O)[O-])cc1C,active: 18.4 µM
15,Cn1c(=O)n(C)c2cc(NC(=O)CSc3ccccc3)ccc21,inactive
16,CNC(=O)COc1coc(CN2CCN(C(=O)c3ccco3)CC2)cc1=O,inactive
17,COc1cccc(C(=O)Nc2ccccc2NC(=O)c2cccc(OC)c2)c1,"inconclusive [activator, single point]"
18,CCOc1cc(N2CCOCC2)c(OCC)cc1NC(=O)CC12CC3CC(CC(C3)C1)C2,"inconclusive [activator, partial curve, poor fit]"
19,CCC12CN3CC(CC)(CN(C1)C3c1c(O)ccc3ccccc13)C2=O (centres undefined),"inconclusive [activator, partial curve, poor fit]"
20,CCCCCCSc1cccc(-c2nc3ccc(Cl)cn3c2NCc2ccccc2)c1,active: 20.6 µM
21,CC1C=CCC2C(=O)N(c3cccc(C(=O)Nc4ccc(Br)cc4)c3)C(=O)C12 (centres undefined),"inconclusive [activator, single point]"
22,CCOc1cc(C)c(-c2onc(C(F)(F)F)c2-c2csc(C)n2)c(O)c1,"inconclusive [activator, single point]"
